This passage reports cytotoxicity call and growth inhibition call results from the antibiotic and cytotoxicity screens of Wong et al. (2023).

The other results are listed elsewhere or left out.

The test system of one experiment is HSkMC. In words: cytotoxicity call (relative viability < 0.9). The note with it: 10 µM.
Another experiment deals with HepG2. The experiment can be described thus: cytotoxicity call (relative viability < 0.9). The conditions noted are these: 10 µM.
The test system of another experiment is S. aureus RN4220. In words: growth inhibition call (relative growth <= 0.2). The conditions noted are these: 50 µM.

For the compound `C[C@@H]1CN([C@H](C)CO)C(=O)c2cc(NC(=O)CCN3CCOCC3)ccc2O[C@H]1CN(C)Cc1ccccc1`, the cytotoxicity call in the experiment on HSkMC and in the experiment with HepG2 was “inactive” in each case. For the same compound, the growth inhibition call in the experiment with S. aureus RN4220 was “inactive”.
`CC(C)NC(=O)N(C)C[C@H]1Oc2ncc(-c3ccc(C(=O)N(C)C)cc3)cc2C(=O)N([C@H](C)CO)C[C@H]1C`: the cytotoxicity call in the experiment on HSkMC and in the experiment on HepG2 was “inactive” in each case. Besides, the growth inhibition call in the experiment with S. aureus RN4220 is “inactive”.
In the case of `COc1ccc(S(=O)(=O)Nc2cccc3c2O[C@@H](CN(C)C(=O)Nc2cccc4ccccc24)[C@H](C)CN([C@@H](C)CO)C3=O)cc1`, the cytotoxicity call with HSkMC was “inactive”. In the experiment with HepG2, the cytotoxicity call was “active”. The growth inhibition call in the experiment with S. aureus RN4220 was “inactive”.
Consider `O=C1[C@@H]2[C@@H](C(=O)N1CCO)[C@@H]1C=C[C@@H]2C1`, for which the cytotoxicity call in the experiment on HSkMC and with HepG2 was “inactive” in each case. In addition, the growth inhibition call in the experiment on S. aureus RN4220 was “inactive”.
With `CC(C)(C)[S@@](=O)N1Cc2cc(C(=O)NCc3ccccc3F)nc(-c3cccc(-c4cccnc4)c3)c2[C@H]1CCO`, the cytotoxicity call with HSkMC and in the experiment with HepG2 was “inactive” in each case. Besides, in the experiment on S. aureus RN4220, the growth inhibition call was “inactive”.
In the case of `Cc1ccc(S(=O)(=O)N2C[C@H](O)COC[C@@H]3O[C@H](CC(=O)N[C@H]4CCN(Cc5ccccc5)C4)CC[C@H]32)cc1`, the cytotoxicity call with HSkMC and in the experiment on HepG2 was “inactive” in each case. In addition, in the experiment with S. aureus RN4220, the growth inhibition call was “inactive”.
`C[C@H](CO)N1C[C@H](C)[C@H](CN(C)C(=O)Nc2ccc3c(c2)OCO3)OCc2cnnn2CCCC1=O`: the cytotoxicity call in the experiment on HSkMC and in the experiment with HepG2 was “inactive” throughout. The growth inhibition call in the experiment with S. aureus RN4220 was “inactive”.
For the compound `COc1ccc(NC(=O)Nc2ccc3c(c2)C(=O)N([C@@H](C)CO)C[C@H](C)[C@H](CN(C)CC2CCCCC2)OCCCC[C@@H](C)O3)cc1`, the cytotoxicity call in the experiment with HSkMC and with HepG2 was “inactive” throughout. For the same compound, in the experiment on S. aureus RN4220, the growth inhibition call was “inactive”.
For `C[C@H](CO)N1C[C@H](C)[C@H](CN(C)Cc2ccc(C(=O)Nc3ccccc3N)cc2)Oc2ccc(NC(=O)Nc3ccccc3)cc2C1=O`, the cytotoxicity call in the experiment with HSkMC and with HepG2 was “inactive” each time. Also, the growth inhibition call in the experiment on S. aureus RN4220 was “inactive”.
As to `C[C@@H]1CN([C@@H](C)CO)C(=O)c2cc(NC(=O)Nc3cccc4ccccc34)ccc2O[C@H]1CN(C)Cc1ccc(Oc2ccccc2)cc1`, the cytotoxicity call in the experiment with HSkMC and in the experiment on HepG2 was “inactive” in each case. Also, in the experiment on S. aureus RN4220, the growth inhibition call was “inactive”.
For the compound `C[C@@H]1CN([C@H](C)CO)C(=O)Cc2cc(NC(=O)NC3CCCCC3)ccc2O[C@@H]1CN(C)Cc1ccc(-c2ccccc2)cc1`, the cytotoxicity call in the experiment with HSkMC and with HepG2 was “inactive” in each case. The growth inhibition call in the experiment with S. aureus RN4220 is “inactive”.
On to `CC(C)(Sc1cc(C(C)(C)C)c(O)c(C(C)(C)C)c1)Sc1cc(C(C)(C)C)c(OCC(=O)O)c(C(C)(C)C)c1`, for which the cytotoxicity call in the experiment with HSkMC is “active”. For the same compound, in the experiment with HepG2, the cytotoxicity call is “inactive”. Also, the growth inhibition call with S. aureus RN4220 was “active”.
In the case of `C[C@@H]1CN([C@@H](C)CO)C(=O)c2cc(NC(=O)Nc3ccc(F)cc3)ccc2O[C@@H](C)CCCCO[C@@H]1CN(C)S(=O)(=O)c1ccccc1`, the cytotoxicity call in the experiment with HSkMC and with HepG2 was “inactive” each time. Also, in the experiment on S. aureus RN4220, the growth inhibition call was “inactive”.
For the compound `Cc1ccc(S(=O)(=O)Nc2ccc3c(c2)C(=O)N([C@@H](C)CO)C[C@@H](C)[C@H](CN(C)S(=O)(=O)c2ccc(C)cc2)OCCCC[C@H](C)O3)cc1`, the cytotoxicity call in the experiment on HSkMC and with HepG2 was “inactive” throughout. In the experiment on S. aureus RN4220, the growth inhibition call was “inactive”.
Take `Cc1ccc(S(=O)(=O)Nc2ccc3c(c2)C(=O)N([C@H](C)CO)C[C@@H](C)[C@@H](CN(C)Cc2ccc(C(F)(F)F)cc2)OCCCC[C@@H](C)O3)cc1`: the cytotoxicity call in the experiment on HSkMC and in the experiment with HepG2 was “inactive” throughout. Also, in the experiment on S. aureus RN4220, the growth inhibition call is “inactive”.
As to `O=C(C[C@H]1CC[C@H]2[C@@H](COC[C@@H](O)CN2S(=O)(=O)c2cccc(F)c2)O1)NCc1ccc2c(c1)OCO2`, the cytotoxicity call in the experiment on HSkMC and in the experiment with HepG2 was “inactive” each time. Further, in the experiment with S. aureus RN4220, the growth inhibition call is “inactive”.
For `Cn1cnc(S(=O)(=O)N[C@H]2C=C[C@@H](CC(=O)Nc3ccccc3)O[C@@H]2CO)c1`, the cytotoxicity call in the experiment on HSkMC and in the experiment with HepG2 was “inactive” in each case. In addition, the growth inhibition call in the experiment on S. aureus RN4220 is “inactive”.
On to `C[C@H](CO)N1C[C@H](C)[C@H](CN(C)C(=O)Nc2cccc3ccccc23)Oc2c(NC(=O)Nc3ccccc3)cccc2C1=O`, for which the cytotoxicity call in the experiment on HSkMC and in the experiment with HepG2 was “inactive” in each case. Moreover, the growth inhibition call in the experiment on S. aureus RN4220 was “inactive”.
`C[C@@H]1CN([C@H](C)CO)C(=O)c2cc(NC(=O)c3ccncc3)ccc2O[C@@H]1CN(C)Cc1ccncc1`: the cytotoxicity call in the experiment with HSkMC and with HepG2 was “inactive” each time. Besides, in the experiment on S. aureus RN4220, the growth inhibition call is “inactive”.
On to `C[C@H]1CNC(=O)O1`, for which the cytotoxicity call in the experiment on HSkMC and with HepG2 was “inactive” in each case. The growth inhibition call in the experiment with S. aureus RN4220 is “inactive”.
With `O=C(N[C@@H](c1ccccc1)c1ccc2ccccc2n1)C1CCN(CCOc2ccc(Cl)cc2Cl)CC1`, the cytotoxicity call in the experiment on HSkMC and in the experiment with HepG2 was “inactive” each time. In the experiment with S. aureus RN4220, the growth inhibition call was “inactive”.
For `CC(=O)Oc1cc(-c2coc3cc(OC(C)=O)c(OC(C)=O)c(OC(C)=O)c3c2=O)cc(OC(C)=O)c1OC(C)=O`, the cytotoxicity call in the experiment on HSkMC and in the experiment on HepG2 was “inactive” in each case. The growth inhibition call with S. aureus RN4220 is “inactive”.
As for `Cc1ccc(S(=O)(=O)N(C)C[C@H]2Oc3c(NC(=O)c4cnccn4)cccc3C(=O)N([C@H](C)CO)C[C@@H]2C)cc1`, the cytotoxicity call in the experiment on HSkMC and with HepG2 was “inactive” throughout. In the experiment with S. aureus RN4220, the growth inhibition call was “inactive”.
As for `COc1ccc2c3c([nH]c2c1)[C@H](CO)N(C[C@]13CCN(CC1)Cc1ccccc1F)S(=O)(=O)c1cn(cn1)C`, the cytotoxicity call with HSkMC and in the experiment with HepG2 was “inactive” throughout. The growth inhibition call in the experiment on S. aureus RN4220 is “inactive”.
Consider `COc1ccc(S(=O)(=O)N(C)C[C@H]2Oc3ccc(NS(=O)(=O)c4c(C)noc4C)cc3C(=O)N([C@@H](C)CO)C[C@@H]2C)cc1`, for which the cytotoxicity call in the experiment with HSkMC and in the experiment with HepG2 was “inactive” each time. For the same compound, the growth inhibition call with S. aureus RN4220 was “inactive”.
Take `C[C@@H]1CN([C@@H](C)CO)C(=O)c2cc(NC(=O)C3CC3)ccc2O[C@H]1CN(C)C(=O)NC1CCCCC1`: the cytotoxicity call with HSkMC and with HepG2 was “inactive” each time. The growth inhibition call in the experiment with S. aureus RN4220 was “inactive”.
As for `OCc1cccc(CO)c1F`, the cytotoxicity call in the experiment with HSkMC and with HepG2 was “inactive” throughout. Moreover, the growth inhibition call with S. aureus RN4220 was “inactive”.
Consider `O=C(C[C@H]1C=C[C@@H](NC(=O)CN2CCOCC2)[C@H](CO)O1)NC1CCC1`, for which the cytotoxicity call in the experiment with HSkMC and in the experiment with HepG2 was “inactive” throughout. In the experiment on S. aureus RN4220, the growth inhibition call is “inactive”.
Regarding `C[C@H](CO)N1C[C@H](C)[C@H](CN(C)Cc2cccc(C(F)(F)F)c2)Oc2ncc(-c3cc4ccccc4o3)cc2C1=O`, the cytotoxicity call with HSkMC and in the experiment with HepG2 was “inactive” throughout. The growth inhibition call in the experiment on S. aureus RN4220 is “inactive”.
Turning to `NCCCCCCNC(=O)[C@@H]1C[C@@H]2C(=O)N[C@@H](CCCCN)C(=O)N2[C@@H]1c1ccc(O)cc1`, the cytotoxicity call with HSkMC and with HepG2 was “inactive” each time. Further, the growth inhibition call in the experiment with S. aureus RN4220 is “inactive”.
For the compound `C[C@H](C(=O)N(C)C[C@@H]1OCc2ccccc2-c2c(n(C)c3ccccc23)C(=O)N([C@@H](C)CO)C[C@H]1C)c1ccccc1`, the cytotoxicity call in the experiment on HSkMC and in the experiment on HepG2 was “inactive” in each case. The growth inhibition call in the experiment on S. aureus RN4220 was “inactive”.
For `S=c1cc(-c2ccccc2)oc(-c2ccccc2)c1`, the cytotoxicity call in the experiment on HSkMC was “inactive”. Further, the cytotoxicity call in the experiment on HepG2 was “active”. Besides, the growth inhibition call in the experiment on S. aureus RN4220 is “inactive”.
In the case of `CC(C)NC(=O)Nc1ccc2c(c1)C(=O)N([C@H](C)CO)C[C@H](C)[C@H](CN(C)Cc1ccc(C(=O)Nc3ccccc3N)cc1)OCCCC[C@@H](C)O2`, the cytotoxicity call with HSkMC and with HepG2 was “inactive” each time. For the same compound, the growth inhibition call in the experiment with S. aureus RN4220 is “inactive”.
With `C[C@@H]1CCCCO[C@H](CN(C)C(=O)c2ccccc2)[C@H](C)CN([C@@H](C)CO)C(=O)c2cc(NC(=O)CCC(F)(F)F)ccc2O1`, the cytotoxicity call with HSkMC and in the experiment with HepG2 was “inactive” in each case. Further, in the experiment on S. aureus RN4220, the growth inhibition call was “inactive”.
On to `CC(N)CCCC(C)(C)O.Cl` (stereo not drawn), for which the cytotoxicity call in the experiment with HSkMC and in the experiment with HepG2 was “inactive” in each case. Further, the growth inhibition call in the experiment on S. aureus RN4220 was “inactive”.
As for `C[C@@H]1CN([C@@H](C)CO)C(=O)c2cc(NC(=O)NC3CCCCC3)ccc2O[C@@H](C)CCCCO[C@H]1CN(C)Cc1ccc2c(c1)OCO2`, the cytotoxicity call with HSkMC and in the experiment with HepG2 was “inactive” each time. Moreover, in the experiment on S. aureus RN4220, the growth inhibition call is “inactive”.
For `C[C@@H]1CCCCO[C@@H](CN(C)CC2CCCCC2)[C@H](C)CN([C@@H](C)CO)C(=O)c2cc(NC(=O)Nc3cccc4ccccc34)ccc2O1`, the cytotoxicity call in the experiment with HSkMC was “inactive”. Besides, the cytotoxicity call in the experiment with HepG2 is “active”. Further, the growth inhibition call in the experiment on S. aureus RN4220 is “inactive”.
Consider `CCS(=O)(=O)NCC[C@H]1CC[C@H](NC(=O)Cc2ccccn2)[C@@H](CO)O1`, for which the cytotoxicity call in the experiment with HSkMC and with HepG2 was “inactive” throughout. The growth inhibition call with S. aureus RN4220 was “inactive”.
`C[C@@H]1CN([C@H](C)CO)C(=O)c2cc(NC(=O)Nc3ccc(F)cc3)ccc2O[C@@H]1CN(C)Cc1ccc(C(=O)Nc2ccccc2N)cc1`: the cytotoxicity call in the experiment with HSkMC and with HepG2 was “inactive” in each case. Besides, in the experiment on S. aureus RN4220, the growth inhibition call was “inactive”.
With `C[C@H](CO)N1C[C@H](C)[C@H](CN(C)C(=O)Nc2ccccc2)OCCCC[C@H](C)Oc2ccc(NC(=O)C3CCCCC3)cc2C1=O`, the cytotoxicity call in the experiment on HSkMC (human skeletal muscle cells) and with HepG2 was “inactive” each time. For the same compound, in the experiment on S. aureus RN4220, the growth inhibition call was “inactive”.
For `C[C@H](CO)N1C[C@H](C)[C@@H](CN(C)CC2CC2)Oc2ccc(NC(=O)CCN3CCOCC3)cc2CC1=O`, the cytotoxicity call with HSkMC and in the experiment with HepG2 was “inactive” throughout. Further, the growth inhibition call with S. aureus RN4220 was “inactive”.
